In article PMC9935832, “Calcium-dependent protein kinase CDPK16 phosphorylates serine-856 of glutamate receptor-like GLR3.6 protein leading to salt-responsive root growth in Arabidopsis^#” (Frontiers in Plant Science, 2023):
These are yes or no findings as the source states them, for the method shown. Binding seen in cells or lysates may run through a third protein. Some results given as binding are weak or reduced against the parent protein; the word gives no strength. Tags and fused reporters may be left off the sequences shown.

What was measured:
[1] = molecular target: T1, GLR3.6-YFP^N (Arabidopsis) (UniProt Q84W41); assay: split reporter; BiFC analysis of Supplementary Figure S4; host and constructs not given
T1 sequence: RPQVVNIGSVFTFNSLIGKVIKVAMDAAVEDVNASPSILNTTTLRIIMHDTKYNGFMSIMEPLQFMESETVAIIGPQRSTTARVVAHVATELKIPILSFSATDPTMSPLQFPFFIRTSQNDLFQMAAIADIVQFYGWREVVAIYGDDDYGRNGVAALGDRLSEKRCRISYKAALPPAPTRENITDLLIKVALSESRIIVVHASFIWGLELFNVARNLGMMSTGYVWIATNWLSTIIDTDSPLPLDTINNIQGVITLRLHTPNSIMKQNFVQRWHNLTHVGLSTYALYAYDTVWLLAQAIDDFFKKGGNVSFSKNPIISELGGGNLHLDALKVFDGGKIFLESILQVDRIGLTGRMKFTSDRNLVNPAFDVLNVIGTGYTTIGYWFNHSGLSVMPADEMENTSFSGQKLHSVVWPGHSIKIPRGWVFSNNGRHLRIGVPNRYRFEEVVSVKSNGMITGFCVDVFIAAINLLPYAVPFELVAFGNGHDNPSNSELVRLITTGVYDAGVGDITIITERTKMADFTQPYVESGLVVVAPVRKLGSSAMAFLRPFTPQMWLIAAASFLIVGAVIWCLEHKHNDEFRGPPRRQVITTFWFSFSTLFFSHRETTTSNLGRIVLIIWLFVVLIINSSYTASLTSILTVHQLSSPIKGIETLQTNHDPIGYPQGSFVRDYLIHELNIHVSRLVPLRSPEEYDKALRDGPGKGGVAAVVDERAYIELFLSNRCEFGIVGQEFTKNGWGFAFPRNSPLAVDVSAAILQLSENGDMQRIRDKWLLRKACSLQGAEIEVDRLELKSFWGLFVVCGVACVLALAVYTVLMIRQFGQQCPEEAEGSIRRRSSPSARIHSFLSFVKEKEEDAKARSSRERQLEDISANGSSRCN

[2] = molecular target: T2, 14-3-3ω-YFP^C (Arabidopsis) (UniProt Q01525); assay: split reporter; BiFC in Arabidopsis protoplasts transfected with 10-20 μg plasmid DNA, 16-24 h at 22°C; reconstituted YFP seen by confocal microscopy
T2 sequence: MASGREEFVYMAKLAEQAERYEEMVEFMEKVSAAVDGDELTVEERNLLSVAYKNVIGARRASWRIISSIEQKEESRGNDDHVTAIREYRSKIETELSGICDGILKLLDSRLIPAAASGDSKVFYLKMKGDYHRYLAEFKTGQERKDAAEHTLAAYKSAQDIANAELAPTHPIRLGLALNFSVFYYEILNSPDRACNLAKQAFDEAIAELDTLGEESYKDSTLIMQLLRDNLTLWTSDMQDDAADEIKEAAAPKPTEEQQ

[3] = molecular target: T2, 14-3-3ω-YFP^C (Arabidopsis); assay: split reporter; BiFC in tobacco (Nicotiana benthamiana) leaf cells after agroinfiltration, 2-3 days at 22-24°C; YFP^N and YFP^C fusions; reconstituted YFP seen by confocal microscopy; PIP2a-mCherry as plasma membrane marker

B1: GLR3.7 (BiFC fusion) (protein, UniProt Q9SDQ4 26-921)
chain: QRPQLVNIGAVFAFDSVIGRAAKVALEAAVSDVNNDKSFLKETELRLLMEDSACNVFRGSFGAFELLEKEVVAMIGPISSSVAHTISDIAKGLHFPLVSFAATDPTLSALQFPFFLRTTPNDAHQMSALVDLINFYGWKEVISVYSDDELGRNGVSALDDELYKKRSRISYKVPLSVHSDEKFLTNALNKSKSIGPRVYILHFGPDPLLRIFDIAQKLQMMTHEYVWLATDWLSVTLDSLSDKGTLKRLEGVVGLRQHIPESVKMEHFTHKLQSNRSMNAYALHAYDTVWMIAHGIEELLNEGINITFSYSEKLLHARGTKLHLEKIKFFNSGELLLEKLLKVNFTGIAGQVQFGSGRNVIGCDYEIINVNKTDVHTVGFWSKNGGFSVVAPKTRHSQKKTSFVSDEKLGDITWPGGGREKPRGWVIADSADPLKIVVPRRVSFVEFVTEEKNSSHRIQGFCIDVFIEALKFVPYSVPYIFEPFGNGHSSPNYNHLIQMVTDGVYDAAVGDIAIVPSRSKLVDFSQPYASTGLVVVIPANDDNATWIFLRPFTSRLWCVVLVSFLVIAVVIWILEHRINEDFRGPPRRQLSTMLLFSFSTLFKRNQEDTISNLARLVMIVWLFLLMVLTASYTANLTSILTVQQLPSAITGIDSLRASEVPIGYQAGTFTLEYLTYSLGMARSRLVPLDSTEEYEKALKLGPTNWGGVAAIVDELPYIELFLAERTGFKIVGEPFMHRGWGFAFKRDSPLAIDMSTAILKLSETRKLQEIRKKWLCKTNCAGKSNWNPEPNQLHLKSFKGLYLVCIAITVSAFLVFVLRMIRQFVRYRRMERTSSMPRASWSASPTLRLRELVFDFVEFVDEKEEAIKRMFRRSDDSNNNPSHVGEVQADTEVPRN
[1]
  binding: binds

B2: GLR3.6-S856A-YFP^N (protein, UniProt Q84W41 26-903)
chain: RPQVVNIGSVFTFNSLIGKVIKVAMDAAVEDVNASPSILNTTTLRIIMHDTKYNGFMSIMEPLQFMESETVAIIGPQRSTTARVVAHVATELKIPILSFSATDPTMSPLQFPFFIRTSQNDLFQMAAIADIVQFYGWREVVAIYGDDDYGRNGVAALGDRLSEKRCRISYKAALPPAPTRENITDLLIKVALSESRIIVVHASFIWGLELFNVARNLGMMSTGYVWIATNWLSTIIDTDSPLPLDTINNIQGVITLRLHTPNSIMKQNFVQRWHNLTHVGLSTYALYAYDTVWLLAQAIDDFFKKGGNVSFSKNPIISELGGGNLHLDALKVFDGGKIFLESILQVDRIGLTGRMKFTSDRNLVNPAFDVLNVIGTGYTTIGYWFNHSGLSVMPADEMENTSFSGQKLHSVVWPGHSIKIPRGWVFSNNGRHLRIGVPNRYRFEEVVSVKSNGMITGFCVDVFIAAINLLPYAVPFELVAFGNGHDNPSNSELVRLITTGVYDAGVGDITIITERTKMADFTQPYVESGLVVVAPVRKLGSSAMAFLRPFTPQMWLIAAASFLIVGAVIWCLEHKHNDEFRGPPRRQVITTFWFSFSTLFFSHRETTTSNLGRIVLIIWLFVVLIINSSYTASLTSILTVHQLSSPIKGIETLQTNHDPIGYPQGSFVRDYLIHELNIHVSRLVPLRSPEEYDKALRDGPGKGGVAAVVDERAYIELFLSNRCEFGIVGQEFTKNGWGFAFPRNSPLAVDVSAAILQLSENGDMQRIRDKWLLRKACSLQGAEIEVDRLELKSFWGLFVVCGVACVLALAVYTVLMIRQFGQQCPEEAEGAIRRRSSPSARIHSFLSFVKEKEEDAKARSSRERQLEDISANGSSRCN
[2]
  binding: binds
[3]
  binding: binds

B3: GLR3.6-S861A-YFP^N (protein, UniProt Q84W41 26-903)
chain: RPQVVNIGSVFTFNSLIGKVIKVAMDAAVEDVNASPSILNTTTLRIIMHDTKYNGFMSIMEPLQFMESETVAIIGPQRSTTARVVAHVATELKIPILSFSATDPTMSPLQFPFFIRTSQNDLFQMAAIADIVQFYGWREVVAIYGDDDYGRNGVAALGDRLSEKRCRISYKAALPPAPTRENITDLLIKVALSESRIIVVHASFIWGLELFNVARNLGMMSTGYVWIATNWLSTIIDTDSPLPLDTINNIQGVITLRLHTPNSIMKQNFVQRWHNLTHVGLSTYALYAYDTVWLLAQAIDDFFKKGGNVSFSKNPIISELGGGNLHLDALKVFDGGKIFLESILQVDRIGLTGRMKFTSDRNLVNPAFDVLNVIGTGYTTIGYWFNHSGLSVMPADEMENTSFSGQKLHSVVWPGHSIKIPRGWVFSNNGRHLRIGVPNRYRFEEVVSVKSNGMITGFCVDVFIAAINLLPYAVPFELVAFGNGHDNPSNSELVRLITTGVYDAGVGDITIITERTKMADFTQPYVESGLVVVAPVRKLGSSAMAFLRPFTPQMWLIAAASFLIVGAVIWCLEHKHNDEFRGPPRRQVITTFWFSFSTLFFSHRETTTSNLGRIVLIIWLFVVLIINSSYTASLTSILTVHQLSSPIKGIETLQTNHDPIGYPQGSFVRDYLIHELNIHVSRLVPLRSPEEYDKALRDGPGKGGVAAVVDERAYIELFLSNRCEFGIVGQEFTKNGWGFAFPRNSPLAVDVSAAILQLSENGDMQRIRDKWLLRKACSLQGAEIEVDRLELKSFWGLFVVCGVACVLALAVYTVLMIRQFGQQCPEEAEGSIRRRASPSARIHSFLSFVKEKEEDAKARSSRERQLEDISANGSSRCN
[3]
  binding: binds

B4: GLR3.6-S862A-YFP^N (protein, UniProt Q84W41 26-903)
chain: RPQVVNIGSVFTFNSLIGKVIKVAMDAAVEDVNASPSILNTTTLRIIMHDTKYNGFMSIMEPLQFMESETVAIIGPQRSTTARVVAHVATELKIPILSFSATDPTMSPLQFPFFIRTSQNDLFQMAAIADIVQFYGWREVVAIYGDDDYGRNGVAALGDRLSEKRCRISYKAALPPAPTRENITDLLIKVALSESRIIVVHASFIWGLELFNVARNLGMMSTGYVWIATNWLSTIIDTDSPLPLDTINNIQGVITLRLHTPNSIMKQNFVQRWHNLTHVGLSTYALYAYDTVWLLAQAIDDFFKKGGNVSFSKNPIISELGGGNLHLDALKVFDGGKIFLESILQVDRIGLTGRMKFTSDRNLVNPAFDVLNVIGTGYTTIGYWFNHSGLSVMPADEMENTSFSGQKLHSVVWPGHSIKIPRGWVFSNNGRHLRIGVPNRYRFEEVVSVKSNGMITGFCVDVFIAAINLLPYAVPFELVAFGNGHDNPSNSELVRLITTGVYDAGVGDITIITERTKMADFTQPYVESGLVVVAPVRKLGSSAMAFLRPFTPQMWLIAAASFLIVGAVIWCLEHKHNDEFRGPPRRQVITTFWFSFSTLFFSHRETTTSNLGRIVLIIWLFVVLIINSSYTASLTSILTVHQLSSPIKGIETLQTNHDPIGYPQGSFVRDYLIHELNIHVSRLVPLRSPEEYDKALRDGPGKGGVAAVVDERAYIELFLSNRCEFGIVGQEFTKNGWGFAFPRNSPLAVDVSAAILQLSENGDMQRIRDKWLLRKACSLQGAEIEVDRLELKSFWGLFVVCGVACVLALAVYTVLMIRQFGQQCPEEAEGSIRRRSAPSARIHSFLSFVKEKEEDAKARSSRERQLEDISANGSSRCN
[3]
  binding: binds

B5: GLR3.6-S861/862A-YFP^N (protein, UniProt Q84W41 26-903)
chain: RPQVVNIGSVFTFNSLIGKVIKVAMDAAVEDVNASPSILNTTTLRIIMHDTKYNGFMSIMEPLQFMESETVAIIGPQRSTTARVVAHVATELKIPILSFSATDPTMSPLQFPFFIRTSQNDLFQMAAIADIVQFYGWREVVAIYGDDDYGRNGVAALGDRLSEKRCRISYKAALPPAPTRENITDLLIKVALSESRIIVVHASFIWGLELFNVARNLGMMSTGYVWIATNWLSTIIDTDSPLPLDTINNIQGVITLRLHTPNSIMKQNFVQRWHNLTHVGLSTYALYAYDTVWLLAQAIDDFFKKGGNVSFSKNPIISELGGGNLHLDALKVFDGGKIFLESILQVDRIGLTGRMKFTSDRNLVNPAFDVLNVIGTGYTTIGYWFNHSGLSVMPADEMENTSFSGQKLHSVVWPGHSIKIPRGWVFSNNGRHLRIGVPNRYRFEEVVSVKSNGMITGFCVDVFIAAINLLPYAVPFELVAFGNGHDNPSNSELVRLITTGVYDAGVGDITIITERTKMADFTQPYVESGLVVVAPVRKLGSSAMAFLRPFTPQMWLIAAASFLIVGAVIWCLEHKHNDEFRGPPRRQVITTFWFSFSTLFFSHRETTTSNLGRIVLIIWLFVVLIINSSYTASLTSILTVHQLSSPIKGIETLQTNHDPIGYPQGSFVRDYLIHELNIHVSRLVPLRSPEEYDKALRDGPGKGGVAAVVDERAYIELFLSNRCEFGIVGQEFTKNGWGFAFPRNSPLAVDVSAAILQLSENGDMQRIRDKWLLRKACSLQGAEIEVDRLELKSFWGLFVVCGVACVLALAVYTVLMIRQFGQQCPEEAEGSIRRRAAPSARIHSFLSFVKEKEEDAKARSSRERQLEDISANGSSRCN
[2]
  binding: no binding
[3]
  binding: no binding
